Source: PMC12136788
The other results are listed elsewhere or left out.

T1: UNK ZnF1-3 (human, UniProt Q9C0B0 31-174)
T1 sequence: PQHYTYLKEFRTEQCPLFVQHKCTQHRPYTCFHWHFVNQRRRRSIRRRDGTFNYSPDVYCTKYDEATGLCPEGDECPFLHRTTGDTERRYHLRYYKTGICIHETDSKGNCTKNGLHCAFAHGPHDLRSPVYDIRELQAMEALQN

B1: chr1:52222005:52222006:-_ENSMUSG00000026103_ENSMUST00000114513|mus_mus|FALSE|FALSE (ssRNA)
RNA: GGGAGUUCUACAGUCCGACGAUCACCAACAGUUAGGCAGUAGAGGAAGAGAAGAUACUCAGGGCCUCCCACAAAGGGGUGCUAUCUUGAUGCAGACAUUUGACAGCAGGAUUCAAAGUAAGUGUUAUUUGUAGCUUUUCCUAACAACAGAGGAUUGAGCAUCA
B2: chr7:56126341:56126342:+_ENSG00000146731_ENST00000540286|hu_mus|hu_hu_hu_mus_True|68_108 (ssRNA)
RNA: GGGAGUUCUACAGUCCGACGAUCCAUAUUUCUCCUUUUGGCUCUGCGCAGAGCUACGAUCCCUUCUUUUGAAAGAGCAUCUAAGGAAAAGGGGUCAAUCCCCUUUUGAUUAAUAACGACAAAUCCUUUAUCUGAGUCACCACACAACAGAGGAUUGAGCAUCA
B3: chr14:66974463:66974464:+_ENSMUSG00000022044_ENSMUST00000074523|mus_mus|FALSE|FALSE (ssRNA)
RNA: GGGAGUUCUACAGUCCGACGAUCUUGUAGGAUGAUUUAUUCAGGGGAUCAGACAAGAAGCAAGAGCAGAACAGAGACACUAGUGGGAGUUCCUUCAUCUUCUCCUUAUAGGCUGCAAGAGUCAUGUUGGCUGGAAUCUGGUGGCAACAGAGGAUUGAGCAUCA
B4: 234746276_234749352_2199_CDS_ENSG00000123485_ENST00000411486|human|control|control (ssRNA)
RNA: GGGAGUUCUACAGUCCGACGAUCCCUGUAAGACGUGUUCUCUCCUCUCUCUUCUGAGUUGGGCUGUGAAGAGCUGCCCUGGUCUCCCGGUCUGACGGUGUUGUCCACCCCAUCUGAGGCACCCAGGGAAUUGCCCUGGCGUCCCAACAGAGGAUUGAGCAUCA
B5: chr11:44375045:44375046:+_ENSMUSG00000019189_ENSMUST00000019333|mus_mus|FALSE|FALSE (ssRNA)
RNA: GGGAGUUCUACAGUCCGACGAUCACAGAGGGCCACAACAAACUCCAGCAGACGAUAAGUGCCAUUCACGUAGUAGAUGACGUCAUCCAUGUUUUCCACGGGCUCUUUGCGGAAUUCCUCAACCAUAAAUAAGACGUAAAUAAACAACAGAGGAUUGAGCAUCA
B6: chr8:104447970:104447971:+_ENSG00000164934_ENST00000297579|hu_hu|FALSE|FALSE (ssRNA)
RNA: GGGAGUUCUACAGUCCGACGAUCAUAUACCUCCCUGCUUCGACUUUUGUCUACAGGAAAGAUUCGAAUAGAUUUAUCGAAACUAGCAGACACAAACUCCUUCCCAGUGGGAGAGUAAUCCACAUCAAGCACUGCAGAUACAUGCAACAGAGGAUUGAGCAUCA
B7: chr2:42509997:42509998:+_ENSG00000143924_ENST00000318522|hu_mus|hu_hu_hu_mus_True|1_58 (ssRNA)
RNA: GGGAGUUCUACAGUCCGACGAUCUCGCUGAGUCCUCUCCUCAUAAUUAAACAGGACUACCACUGAGGCGAUAAAAUAAACUAUUUUCCCUGUGGGAAGCAGGUAUACAUUCGCUCUACAGUCCUUUCCUCGAUAACCAUAUGCCAACAGAGGAUUGAGCAUCA
B8: chr7:86439405:86439406:+_ENSMUSG00000039202_ENSMUST00000037315|mus_hu|motif|central (ssRNA)
RNA: GGGAGUUCUACAGUCCGACGAUCUUCCUUGAAGAGUUGUACAGUUGGGCCGGUCAGGUCAGAUCUCUUAUUCAAACAAACCGGAAAGCUGCGUGUGAUUGACUACAGGUGCUCAGCUCGCCCCCAGUCUGGUUCCUGCAGCUCCAACAGAGGAUUGAGCAUCA
B9: chr17:13112271:13112272:+_ENSMUSG00000068039_ENSMUST00000151287|mus_hu|motif|central (ssRNA)
RNA: GGGAGUUCUACAGUCCGACGAUCAAUUAGGUUUUCAUUGAUAUAACGCACUGCUUCCUUGCAAGCAAGUCGAUAGCCACGGAUAACUGAUGUGGGAUGAAUUUUCUGUUUGACUAAUUCAUCUGCAUUUUUUAGGAGUUCUGCCAACAGAGGAUUGAGCAUCA
B10: chr1:39494564:39494565:+_ENSG00000168653_ENST00000372967|hu_mus|motif|central (ssRNA)
RNA: GGGAGUUCUACAGUCCGACGAUCAUGCAUUCGCCUCAUCGUUUUGUACCGAAGCAAGCACUCUUCGAAGUCAUCGAACUCGGUCUUGCACUCCUUUUUCGCCCGGGUCCCACCGAUCCCGUGUGCACACUCUAUCCACUCUUUCAACAGAGGAUUGAGCAUCA
B11: chr3:88342849:88342850:+_ENSMUSG00000074480_ENSMUST00000172699|mus_mus|FALSE|FALSE (ssRNA)
RNA: GGGAGUUCUACAGUCCGACGAUCCUUUGUGGGUAAGGAGUGGAGAGGGGGAGGGGACUGACAGACAGACAUCCCUUCUUCCCACCCCCCUCCCAUCCCCUGCCCCUGGGCAACCCAGGGUGCCCAUUUGGUUUGGUUUCUAUUCAACAGAGGAUUGAGCAUCA
B12: 142037738_142048388_4466_3pUTR_ENSG00000114127_ENST00000264951|human|control|control (ssRNA)
RNA: GGGAGUUCUACAGUCCGACGAUCUCAUUGUCUGUGGCAUCCUAAGAAAGGAGAAAUCAGGUUGUGGCAUUCCAACAAGGGAACAAAUUCGAGAAAGUUCAGUUACUGGUGUGGAUACAGGAGGGAUCUGGCUGGGGGCAGGCCCAACAGAGGAUUGAGCAUCA
B13: chr5:60455605:60455606:-_ENSG00000188725_ENST00000339020|hu_mus|FALSE|FALSE (ssRNA)
RNA: GGGAGUUCUACAGUCCGACGAUCAACUUAAAUACUUGCCAGUAGAUACCAACAAACUUUUAUUUCCAAGCCUAAAAGUUACUAUAGUAUUGAGGUCAGAACAUGACUCUUCUGUACGGUCAGAUUAAUUCACUAAAUAAUACUCAACAGAGGAUUGAGCAUCA
B14: 33710973_33711093_6789_3pUTR_ENSMUSG00000027677_ENSMUST00000099153|mouse|control|control (ssRNA)
RNA: GGGAGUUCUACAGUCCGACGAUCAAAUCAGCAUCUCCUUUAAACCUUUGGGAAAAUCGUCAUUACAGCAGUGAUUGUCUUAGAACUCAGUUACUUCUGGAAACGCAGCACUGGUAGGAAAUCUGUUUCUACUAAUGAUCAUUUCAACAGAGGAUUGAGCAUCA
B15: chr2:179515052:179515053:+_ENSMUSG00000000305_ENSMUST00000000314|mus_hu|mus_mus_mus_hu_False|38_78 (ssRNA)
RNA: GGGAGUUCUACAGUCCGACGAUCGCUGUCCCAUGCAGUCACCGUGAACGCCACCUGCUCUGAGGGGACCUGCAGCUCCCGGGUGGCGAAGACUGUCCCAUCCGCCCCAACUUUGAAGUCCAUGCUGUUGGUCUCAUAUUGUGUCAACAGAGGAUUGAGCAUCA
B16: chr14:103931940:103931941:+_ENSG00000075413_ENST00000216288|hu_mus|FALSE|FALSE (ssRNA)
RNA: GGGAGUUCUACAGUCCGACGAUCACAAAACGUGUCUAGUUUACUGCCAACAGUAAAUUCAUUGCUAAAACCAAAAUCUGCUAUUUUAAUGUUCAUAUCCGCAUCUAAUAACAGAUUUUCAGCCUUGAGGUCUCUGUGAACAAUCAACAGAGGAUUGAGCAUCA
B17: chr1:180459674:180459675:+_ENSMUSG00000026494_ENSMUST00000161017|mus_mus|motif|central (ssRNA)
RNA: GGGAGUUCUACAGUCCGACGAUCGCCUCUCUUUAUUUCCGGCUACCGAAUUCAUGGUGGCUCUUCCAGAGGAAAGGGUCGGAAUGUUCCCACAAGGCUACAUCCAAAAGGUCUGCCAACCCAGACGCGUCCCCCCUCGUGGUACAACAGAGGAUUGAGCAUCA
B18: chr1:60041781:60041782:+_ENSMUSG00000041040_ENSMUST00000036540|mus_hu|mus_mus_mus_hu_False|8_98 (ssRNA)
RNA: GGGAGUUCUACAGUCCGACGAUCAAGUUUACAAUAGCUCAACUUUAGCAGUAGUGGCAAAUUUUCUUUUAUUUUCCUUCACAAAAGAAAAUCUUUAUAACCCAGUCCUAGUCUUGGACAUAGUGAAUCUCCAUGGGUCUGACUCAACAGAGGAUUGAGCAUCA
B19: chr1:163112212:163112213:-_ENSG00000143248_ENST00000313961|hu_hu|hu_hu_hu_mus_False|18_38 (ssRNA)
RNA: GGGAGUUCUACAGUCCGACGAUCUUUUAUUAUCAGUAAGAGUGAGUUACAUACUAGGCAAAGUAUUGGAUACAAUAAUCAGGAAACAAACACUAUUUUUCUUGAAUUUAAAACUUUUGGGAUAAAUUGCUGGCACAGGACUUACAACAGAGGAUUGAGCAUCA
B20: chr2:166767530:166767531:+_ENSMUSG00000002718_ENSMUST00000002790|mus_hu|motif|central (ssRNA)
RNA: GGGAGUUCUACAGUCCGACGAUCAAAUAUUUCUUGUAGUGCUAGUGCCCCAUAUUUUAUGCAAUACAAAUUAAUAAAGACGGAAAAACUCUUGAUAAACUUGGUUGUUUUGGAAUUCUGAAGUCUCUGGAAUAGCAGAAUGAACAACAGAGGAUUGAGCAUCA
B21: chr21:30248746:30248747:-_ENSG00000156239_ENST00000303775|hu_hu|FALSE|FALSE (ssRNA)
RNA: GGGAGUUCUACAGUCCGACGAUCUCAAAAUAUGCUAAAUGCAUUCAGUUUCCAGUAGUUCUGGGCACACACUGUAUGCUAAGACUUGGUGAACUUGAGGACUGAAAGAGUUUCUUGGCCUGCUUGUCUGGAAAGUGCAGUGGUCAACAGAGGAUUGAGCAUCA
B22: chr5:138643614:138643615:+_ENSG00000015479_ENST00000510056|perfect_dup|motif|central (ssRNA)
RNA: GGGAGUUCUACAGUCCGACGAUCGUCAUAAUCAAGCACUGGGUUGAGACUAGGACCACGAUCAUCAAAACUAUCUCUUCGGAAGUGCCUUUUUUCUUCCCAAUCAUCCCUAGGUACUCUGUAUGGUGGCUCCCGUGUAGCAGACAACAGAGGAUUGAGCAUCA

These binders were tested against T1, UNK ZnF1-3 (assay: nsRBNS (natural sequence RNA bind-n-seq); RBNS binding buffer (assumed for nsRBNS): 25 mM Tris pH 7.5, 150 mM KCl, 3 mM MgCl2, 0.01% Triton X-100, 500 ug/ml BSA, 20 U/ml SUPERase-In, 4 C; UNK is unkempt and MSI1 is Musashi-1; names of the RNAs are library labels; protein concentration not given here; high values mean tight binding).

Binder	binding signal
B1	1.34 enrichment R
B2	1.64 enrichment R
B3	1.71 enrichment R
B4	0.781 enrichment R
B5	1.74 enrichment R
B6	0.894 enrichment R
B7	1.66 enrichment R
B8	1.15 enrichment R
B9	0.636 enrichment R
B10	0.601 enrichment R
B11	0.317 enrichment R
B12	1.81 enrichment R
B13	0.607 enrichment R
B14	1.05 enrichment R
B15	0.74 enrichment R
B16	0.574 enrichment R
B17	1.21 enrichment R
B18	0.69 enrichment R
B19	2.34 enrichment R
B20	1.59 enrichment R
B21	1.11 enrichment R
B22	1.4 enrichment R
